Test results from the supplement of paper PMC3334620.
Over roughly 33,000 sequences, “E-score (-0.5 to 0.5)” has its median near -0.021; the highest 2% begin near 0.32. This is one part of the list.

Each sequence was assayed against T1, Zap1 (UniProt P47043) (assay: PBM E-score (8-mer binding enrichment) (E-score (-0.5 to 0.5)); higher = stronger / more preferred TF binding; most listed sequences are background and not binding sites). Details: protein concentration: 200 nM; construct: GST-full length.
T1 sequence: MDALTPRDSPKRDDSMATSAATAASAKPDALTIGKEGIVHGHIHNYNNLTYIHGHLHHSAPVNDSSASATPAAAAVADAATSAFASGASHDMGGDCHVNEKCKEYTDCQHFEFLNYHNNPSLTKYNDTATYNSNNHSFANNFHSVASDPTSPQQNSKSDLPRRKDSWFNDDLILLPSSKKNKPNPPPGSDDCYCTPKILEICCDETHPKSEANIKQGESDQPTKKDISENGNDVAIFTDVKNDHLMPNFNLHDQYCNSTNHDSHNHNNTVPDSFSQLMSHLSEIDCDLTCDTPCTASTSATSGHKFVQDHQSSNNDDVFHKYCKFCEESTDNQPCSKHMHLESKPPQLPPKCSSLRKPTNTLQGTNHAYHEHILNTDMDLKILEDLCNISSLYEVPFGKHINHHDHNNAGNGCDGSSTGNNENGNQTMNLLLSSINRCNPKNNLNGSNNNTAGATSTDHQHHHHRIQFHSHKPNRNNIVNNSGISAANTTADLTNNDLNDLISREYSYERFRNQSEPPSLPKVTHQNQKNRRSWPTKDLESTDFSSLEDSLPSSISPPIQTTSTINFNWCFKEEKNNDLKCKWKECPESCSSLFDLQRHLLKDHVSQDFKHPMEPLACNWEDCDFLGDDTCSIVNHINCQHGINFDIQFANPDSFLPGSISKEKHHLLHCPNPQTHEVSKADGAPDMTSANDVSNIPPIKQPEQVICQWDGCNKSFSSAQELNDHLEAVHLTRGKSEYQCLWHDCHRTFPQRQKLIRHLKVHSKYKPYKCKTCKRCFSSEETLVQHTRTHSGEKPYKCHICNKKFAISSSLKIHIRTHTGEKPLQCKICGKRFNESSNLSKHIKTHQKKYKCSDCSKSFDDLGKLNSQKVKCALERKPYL
Method in brief: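 E-scores (a modified Wilcoxon-Mann-Whitney statistic) were assigned by the Universal PBM Analysis Suite to every ungapped eight-base word pooled with its reverse complement. The input came from universal all-10-mer Agilent arrays made double-stranded by primer extension and probed with GST-tagged yeast transcription factors at about 100-200 nM. Fluorescent anti-GST detected bound protein, and masliner normalised the scans.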

Sequence	PBM E-score
ATGGGGGG	-0.045
GAGCATTA	-0.221
AGGAACGC	-0.189
CTTTCGGA	-0.121
CGCCTTCA	-0.26
AACTGGAA	0.0221
CCGCTTGC	-0.121
CATCAATC	-0.0837
GAGGAACC	0.108
AGTGTGTG	0.0959
ATACAGCC	-0.0427
CACCCCGC	0.237
AATATGGA	0.035
ACGCACCT	-0.0346
ATGGACCG	0.0558
CCATACCA	0.0975
CTTGTGAC	0.0651
CATGGTTC	0.132
ATTGAGGC	0.0527
AGCTCAGA	-0.119
CAGGTTCC	0.0995
GGTCTTAC	0.103
ACTTGGCC	0.0412
GCGGTGTA	0.063
AGATACCT	0.125

Sequence	PBM E-score
CTAGAAAG	0.052
GGGCAATA	-0.159
ATATCAGC	-0.307
CGACTTTA	0.0644
TGAATGAA	0.0566
AAAGACGG	-0.00219
AACGTGTA	-0.176
AGAAGACG	0.106
GAACAACA	0.0722
CACTCAAA	0.0674
CGGGCAGA	-0.0649
CAGTGCGG	-0.149
CTTTCTAC	-0.00024
TCATTACA	0.169
CTAAACTC	-0.0925
AGATTACT	-0.0381
ATTACATA	-0.0412
ACCGTGGC	-0.0956
AATCAAAG	0.0185
ATGATGAC	-0.0562
CTCAGCAA	0.0486
AACACATG	0.112
CAGGGCTA	-0.0311
AGTCTATA	0.0912
AATTAAAG	0.228

Sequence	PBM E-score
GACGGCGA	-0.215
ACATTCCG	-0.00407
AACGAAGT	-0.209
AAGCGAAA	0.00249
CGCGCGAA	0.0563
AGAACGCG	0.0324
CCAGGAAA	0.0576
ACCATCTG	-0.00679
CCTTCCTA	-0.197
CCACTGTC	-0.143
AGTTAAAG	0.111
CGCTTCTA	-0.016
GCACACTA	0.0365
TGCTAGCA	-0.257
AAGTGCGA	-0.197
GCGTTTAA	-0.102
CCGCCTTC	-0.0359
CCCGAAGG	0.0992
CTAAGCGA	-0.186
ATGACTAC	-0.228
CCAGTAAG	0.0362
GCTCCTAC	-0.0998
GCGCAGCA	-0.37
CATGTCGC	-0.194
ACGTCCCA	-0.315

Sequence	PBM E-score
AGCTAGGC	-0.374
ACTGCGAA	-0.0352
AGGGTAGA	0.135
GGTACGGA	0.0574
AGCCCCCG	-0.222
CGCCAACG	-0.0762
ACAAGATA	0.0306
GGACGGAA	-0.191
GCAGCGAC	-0.0984
GGTTGCCA	0.267
ACTGGCGC	-0.191
CCCTTCTA	-0.0705
AGCCGCCT	-0.203
GGCACAGA	-0.267
CGCGGACG	-0.236
ACTCTGAT	-0.0856
GCTATCCC	-0.263
ACGCTTTG	-0.0152
CAGCCTAG	-0.158
ATCACGAG	-0.16
AGGACCAG	-0.0376
AAGCAAAT	-0.123
AGCGTAAG	-0.181
ATTGAACG	0.00357
ATCGTTGC	-0.0754

Sequence	PBM E-score
CTGGTAAA	0.0769
ACTGCCTA	-0.175
AAAAGTAA	0.257
CCACCTCG	0.02
CACGACGG	-0.104
CCGAAAGG	0.0949
CGATAGCC	0.0302
AGGTGAAT	0.0514
ACATCCAG	-0.052
TGTATGAA	0.0247
GGGATTCA	0.0113
AACTTCAT	0.0766
CCTGTTCG	-0.0257
CTCGTATA	-0.0458
AGAGAAAC	-0.0339
CCAATGCA	-0.0366
GTGACTGA	-0.00258
AACCGGCC	0.151
GCGAGAAA	0.0526
GTAAACGA	0.0465
CTGGGGCA	-0.251
TAACGTCA	0.0475
AGAACCCC	0.294
AAGGCGCA	-0.0748
AGTGCTAT	-0.339

Sequence	PBM E-score
CAATGAGG	-0.0414
CAATAGGC	-0.306
CTGTATGC	-0.14
GAAAGATC	-0.146
GGGGGGAA	-0.411
GAGGGGCA	-0.281
GGAAGGTA	0.158
GAGTAACC	0.399
GCCTCGTA	0.0499
GAACGTGA	0.0105
ACCCTTTC	0.298
ACAGACGC	-0.197
CACCTGCA	-0.0838
GTAGCCGA	-0.0612
GACGCTCC	-0.265
CATGCTAA	0.059
CGTCGGAG	-0.0618
GGGCGCCC	-0.0198
CACGTCTC	-0.172
ATAAACCG	0.0813
CTAATGCA	0.132
GCGCACCC	-0.0431
GCCTGAAA	-0.142
ACACACGG	0.00569
AACCGACC	0.0414

Sequence	PBM E-score
CAACGCAG	-0.145
ATGCTGAG	-0.211
GAATAACC	0.438
AATAAGCC	-0.0972
CGCAGTTA	-0.00805
ACTGGTCT	-0.11
ATGAGCAT	0.049
CCGCCTGA	-0.0511
CAGGTTTA	-0.0228
TAAGACGA	-0.0597
ATGAGAAA	0.0758
AGCGATGA	0.0915
ACTAGACT	-0.138
AGTGTCAA	0.0427
ACAAAGTC	-0.039
ACGGTGCC	-0.0533
CAGATATC	-0.0643
CCGCTGAC	0.0922
AGTGAAAA	0.0524
ACCTAGGT	0.26
CCCGCACG	-0.0186
GTATCGCA	0.0307
GAATCACC	0.151
CGGGACCG	-0.142
TCAATCGA	-0.0137

Sequence	PBM E-score
ATCCCAAA	0.0704
CAGAGTGG	-0.0992
AGAAACAG	0.0469
ACGTAGTG	-0.211
AGACGCCT	-0.214
CATTAGGG	0.228
AAAGTAGT	0.0501
GATTACCA	0.141
ACATCACA	0.00816
GCCGATTA	0.0151
GCGTCAGA	-0.171
AACTACTA	0.0861
CCAGGCCC	-0.0933
ATTGCCCC	-0.236
CCTACTAC	0.0486
GGCCTACC	0.092
GCCGTGCA	-0.0302
TAACTGGA	-0.0565
AACTTTTA	0.117
CCTCGTAC	0.107
CCTAGGTC	0.0805
ATGAGTAC	0.0266
GCTTTACC	0.121
CCTCAAAA	0.258
CTGTCAAG	-0.11

Sequence	PBM E-score
GGAACCCC	0.112
CTGACAAG	0.0328
AAGACGCC	0.00252
CTAATATA	0.0961
AGGCCAGG	-0.176
ATCAAAAG	-0.022
AGTAAGCC	-0.192
CCAATTCG	0.187
ATTTCGCA	0.16
AAGGTCTG	0.15
CGTAAGTA	0.0115
AGATAAGC	-0.0625
CCCAAAGG	0.23
CTCACATC	-0.0546
CAACCAAA	0.213
AGGGAGAA	-0.148
AACTCTAC	-0.124
ACAAGTAG	-0.099
CCTCTTAA	0.179
CATTGCTA	0.0595
CCACTACA	-0.0603
GTGCAATA	0.0673
AAATGCGC	0.138
GATAATGA	0.147
GACCCATA	0.259

Sequence	PBM E-score
AACCGTTA	0.224
AAGAAAGT	0.0759
AGGTGTCC	0.184
ACTCACGC	-0.0661
GGTCATCA	0.241
CATCGTAA	0.207
ACTCTATA	-0.0812
AGGGACCC	0.081
CATATATA	0.13
GAGCTACA	-0.242
CGCCGTTC	-0.0417
CCTGAGAC	-0.047
ACGATCGG	-0.0894
TCCTTTCA	-0.122
AGTAAAGC	-0.036
AACCGCCG	0.173
AACAGGAC	0.121
AGACAATG	0.00616
CAAGATAA	0.0722
ATAATGGG	0.0947
ATATGTAA	0.132
CGGACGAC	-0.0685
ACTCCGTA	-0.0213
AGACCAGC	-0.234
ACGGAACT	-0.178

Sequence	PBM E-score
ATCGAAAT	0.0187
AGAGATCA	-0.0378
CTGTAATC	-0.0263
CAAGTTCG	-0.0204
ATCGACTA	-0.0328
TATCAGCA	0.124
TAACGGGA	-0.206
ACCCAAGG	0.3
CAAGATGA	-0.178
GCTCCGAC	-0.208
ATTCTGCA	-0.0113
ATCTGGGC	-0.142
AGACGTTC	-0.189
ATGCGCCA	-0.0984
CCAAACCG	0.122
GTCAAGAC	-0.0329
ACCTAAAG	0.219
TGGCACCA	-0.0571
CTTATCGC	-0.0616
GACCGCAC	-0.0831
ACGGTTCC	-0.0086
GCAGTCCA	-0.126
ATTGTGGG	0.053
AGCGCGAT	0.00939
ATCGTCAG	-0.145

Sequence	PBM E-score
CTACTGCA	-0.158
ATCACTGA	-0.0167
GAAATATA	0.139
CAAGAGAG	-0.0256
CAGTCAGG	-0.206
CGCCTGTC	-0.337
AAGGCGTC	-0.188
TAGATACA	-0.00833
AACCACAG	0.233
ACCATGCC	0.0392
GTCGAGGA	-0.172
CAGGCCGG	-0.259
ACGAAATA	-0.0355
GCCGTACC	0.0363
CAGTCCGA	-0.0499
CCGTGGAG	-0.0519
CCTGCCCA	-0.184
CCCTCATC	-0.191
CATGCGAA	-0.0569
CTGTAAAG	-0.0122
CCTCGCAG	-0.0888
ACGCCAAT	0.127
ATTGTGAG	0.0852
AATAGACG	-0.163
AGCGCATA	-0.0298

Sequence	PBM E-score
AACTGCCA	-0.0896
CCTTCGGA	0.0786
CGCTCAGA	0.146
AGCATACG	-0.191
ATCCCACG	-0.171
CTTAGGTC	0.178
CCTATAGC	-0.0148
ACGTCATA	-0.0571
GCCAGATA	-0.0632
CTAATATC	0.176
ACCATCAA	0.111
CCGTCAGC	-0.241
CTCACTAA	-0.0158
CGACTTTC	-0.0833
GCACAGTA	0.046
CATGGGAC	0.0674
GCAGGGCC	-0.152
AACGGTCA	0.324
AGTCCTTG	-0.0318
GGACGGAC	-0.141
GATGGCAA	-0.0776
TAAAGCTA	-0.124
AGTGCCCA	-0.135
CGCCGCTA	0.0114
CCGAGACG	-0.304

Sequence	PBM E-score
CGCAAGAA	0.216
AACTGCCG	-0.0311
ATCGTATC	-0.0177
GCAAGAAA	0.0794
AATACCGG	0.101
TTAATCAA	0.217
GTACTATA	0.209
CCGAGACC	0.197
CAGGAAAC	0.0766
AACTTACG	-0.112
CATCACCC	0.314
ACAGCGCT	-0.123
GGAGCAAC	-0.0826
AAGTTGAC	-0.00029
CAAAAGCA	-0.027
AGCGAAGC	-0.144
GTGAAAAC	0.137
GAACCGAA	0.0212
GGGAAACC	0.324
